Some of the results follow. At the low end of the ranking the order means little.

In this assay the target is GST-SBP-SLBP (stem-loop binding protein) (UniProt Q14493). Kind of assay: targeted RNA Bind-n-Seq.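 Further: DESeq read counts versus GST-SBP nonspecific binding control pulldown.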 Conditions: RBNS binding buffer: 25 mM Tris pH 7.5, 150 mM KCl, 3 mM MgCl2, 0.1% Tween, 0.5 mg/mL BSA, 1 mM DTT; 27 nM protein, 750 pM RNA pool; temperature not stated; high values mean tight binding.
“GGUCACGUCUCAAUCAACUCAUCUCCAGGAGUUUACUCCUGCUUUCUCAACAGCUCGCAGUCAAG”: the binding signal (log2 fold change) was -0.221. Take “GGUCACGUCUCAAUCAACUCUAUUUCAGGAGUUUCCUCCUGUUUUUUCAACAGCUCGCAGUCAAG”: the binding signal (log2 fold change) is -0.108. On to “GGUCACGUCUCAAUCAACUCAACUCCAGGAGUUUCCUCCUGCUAACUCAACAGCUCGCAGUCAAG”, for which the binding signal (log2 fold change) was found to be 0.0626.

On to “GGUCACGUCUCAAUCAACUCUAUCCCCAGGGAAAACCCUGGUAAAUUCAACAGCUCGCAGUCAAG”, for which the binding signal (log2 fold change) turned out to be 0.172. In the case of “GGUCACGUCUCAAUCAACUCAUUUCCAGGAGUUUACUCCUGCUUUUUCAACAGCUCGCAGUCAAG” it was 0.0701; in that of “GGUCACGUCUCAAUCAACUCAUUCGCAGGAGUUUUCUCCUGGUUUCUCAACAGCUCGCAGUCAAG”, -0.0566; in that of “GGUCACGUCUCAAUCAACUCAAUCUCAGGAGUUUCCUCCUGCAAAGUCAACAGCUCGCAGUCAAG”, -0.0266. As to “GGUCACGUCUCAAUCAACUCUAUCUCCAGGGAAAGCCCUGGCUUACUCAACAGCUCGCAGUCAAG”, the binding signal (log2 fold change) worked out at 0.329. Take “GGUCACGUCUCAAUCAACUCAUCCUCCAGGGAAACCCCUGGUUUAUUCAACAGCUCGCAGUCAAG”: the binding signal (log2 fold change) stood at 0.0497. Turning to “GGUCACGUCUCAAUCAACUCAGUCCCAGGAGUUUUCUCCUGCAUUUUCAACAGCUCGCAGUCAAG”, the binding signal (log2 fold change) is 0.0126. For the sequence “GGUCACGUCUCAAUCAACUCAUCUUCCAGGGAAACCCCUGGCAAUCUCAACAGCUCGCAGUCAAG”, the binding signal (log2 fold change) is -0.0773. On to “GGUCACGUCUCAAUCAACUCUUCGUCCAGGGAAAACCCUGGUUAUUUCAACAGCUCGCAGUCAAG”, for which the binding signal (log2 fold change) was -0.166. In the case of “GGUCACGUCUCAAUCAACUCGUUUUCAGGAGUUUUCUCCUGCAUUUUCAACAGCUCGCAGUCAAG” it was 0.0149. For the sequence “GGUCACGUCUCAAUCAACUCAAUCUCAGGAGUUUUCUCCUGCUAACUCAACAGCUCGCAGUCAAG”, the binding signal (log2 fold change) came out at 0.0306. In the case of “GGUCACGUCUCAAUCAACUCUAUUCCCAGGGAAACCCCUGGCUAUCUCAACAGCUCGCAGUCAAG” it was -0.0563; in that of “GGUCACGUCUCAAUCAACUCAAUCCCCAGGGAAACCCCUGGUUAAUUCAACAGCUCGCAGUCAAG”, 0.0276; in that of “GGUCACGUCUCAAUCAACUCAUCCUCAGGAGUUUCCUCCUGUAAUCUCAACAGCUCGCAGUCAAG”, -0.107. Regarding “GGUCACGUCUCAAUCAACUCUAGUCCCAGGGAAAGCCCUGGCAAAUUCAACAGCUCGCAGUCAAG”, the binding signal (log2 fold change) came out at 0.297.

Regarding “GGUCACGUCUCAAUCAACUCUACUUCAGGAGUUUACUCCUGUAAUCUCAACAGCUCGCAGUCAAG”, the binding signal (log2 fold change) was 0.0643. As to “GGUCACGUCUCAAUCAACUCAUGUCCAGGAGUUUACUCCUGUUUUCUCAACAGCUCGCAGUCAAG”, the binding signal (log2 fold change) was 0.0173. With “GGUCACGUCUCAAUCAACUCUUUUCCCAGGGAAAGCCCUGGUUAACUCAACAGCUCGCAGUCAAG”, the binding signal (log2 fold change) turned out to be 0.124. In the case of “GGUCACGUCUCAAUCAACUCUUUUCCCAGGGAAACCCCUGGCUUUCUCAACAGCUCGCAGUCAAG” it was 0.149.

As to “GGUCACGUCUCAAUCAACUCUUCCCCCAGGGAAACCCCUGGUUAUGUCAACAGCUCGCAGUCAAG”, the binding signal (log2 fold change) came out at 0.21. In the case of “GGUCACGUCUCAAUCAACUCCCACGAGGGGGGGAAAACCCCUUUACCCUCACUCUCAACAGCUCGCAGUCAAG”, the binding signal (log2 fold change) is -0.21. Turning to “GGUCACGUCUCAAUCAACUCUUCCUCAGGAGUUUACUCCUGCUAAUUCAACAGCUCGCAGUCAAG”, the binding signal (log2 fold change) is -0.0839. Take “GGUCACGUCUCAAUCAACUCUUCUUCAGGAGUUUCCUCCUGCUAAUUCAACAGCUCGCAGUCAAG”: the binding signal (log2 fold change) worked out at 0.0448. Take “GGUCACGUCUCAAUCAACUCUCAAGAGGGGGGGAAAACCCCUUUGCCCUCAUUUUCAACAGCUCGCAGUCAAG”: the binding signal (log2 fold change) stood at 0.224. Turning to “GGUCACGUCUCAAUCAACUCAUCUUCCAGGGAAACCCCUGGCUAUUUCAACAGCUCGCAGUCAAG”, the binding signal (log2 fold change) stood at 0.197.

Turning to “GGUCACGUCUCAAUCAACUCCUAAGAGGGGGGGAAAACCCCUUUACCCUCAUCUUCAACAGCUCGCAGUCAAG”, the binding signal (log2 fold change) was found to be 0.0611. As for “GGUCACGUCUCAAUCAACUCAACUUCCAGGGAAAGCCCUGGUUAUCUCAACAGCUCGCAGUCAAG”, the binding signal (log2 fold change) was -0.0842. For “GGUCACGUCUCAAUCAACUCAUUUUCCAGGGAAACCCCUGGUUUUCUCAACAGCUCGCAGUCAAG”, the binding signal (log2 fold change) was -0.0737. As for “GGUCACGUCUCAAUCAACUCCUUAGAGGGGGGGAAAACCCCUUUACCCUCCAAAUCAACAGCUCGCAGUCAAG”, the binding signal (log2 fold change) stood at 0.279. As to “GGUCACGUCUCAAUCAACUCUAUUUCAGGAGUUUUCUCCUGUUUUGUCAACAGCUCGCAGUCAAG”, the binding signal (log2 fold change) was found to be 0.108. For “GGUCACGUCUCAAUCAACUCUUCCGCAGGAGUUUACUCCUGGUAUCUCAACAGCUCGCAGUCAAG”, the binding signal (log2 fold change) was -0.0247. “GGUCACGUCUCAAUCAACUCUUUCUCAGGAGUUUACUCCUGUUAUGUCAACAGCUCGCAGUCAAG”: the binding signal (log2 fold change) came to 0.0149. Take “GGUCACGUCUCAAUCAACUCUUCCGAGGGGGGGAAAACCCCUUUACCCUCACAAUCAACAGCUCGCAGUCAAG”: the binding signal (log2 fold change) was 0.125.

As for “GGUCACGUCUCAAUCAACUCUUCUUCCAGGGAAAACCCUGGCAAAUUCAACAGCUCGCAGUCAAG”, the binding signal (log2 fold change) amounted to 0.272.

Source of the values: paper PMC5892938.
